# Assay results published in the supplement of paper PMC4604168 (melanoma cell lines).
# The other results are listed elsewhere or left out. Repeats are few or missing, and single values can be far off.
# System: UACC257
# Assay: cell count relative to DMSO control; melanoma cells; higher = more viable cells
# Conditions: library dose: low library concentration; 72 h
# 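Note: cell number obtained by counting DAPI-stained nuclei in high-throughput microscope images with image analysis software, screen run in 1,536-well plates.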
row,Structure (SMILES),cell count
1,"Cn1c(Nc2ccc(C(F)(F)F)cc2)nc2cc(Oc3ccnc(-c4ncc(C(F)(F)F)[nH]4)c3)ccc21 + CCCCCCCCCCCC1=C(O)C(=O)C=C(O)C1=O [Embelin] (first compound 0.08 µM, partner dose 1.2 µM)",61.1%
2,"O=C(CCCCCCC(=O)Nc1ccccc1)NO [vorinostat] + O=C(O)C(=O)Nc1sc2c(c1C(=O)O)CCNC2 [TCS401] (first compound 0.08 µM, partner dose 1.66667 µM)",86.8%
3,"O=C(CCCCCCC(=O)Nc1ccccc1)NO [vorinostat] + CCc1ccc(CCOc2ccc(CC3SC(=O)NC3=O)cc2)nc1 [pioglitazone] (first compound 0.08 µM, partner dose 2 µM)",91.7%
4,"C#Cc1cccc(Nc2ncnc3cc(OCCOC)c(OCCOC)cc23)c1 [erlotinib] + O=C(Nc1ccccc1)c1cc([N+](=O)[O-])ccc1Cl [GW9662] (first compound 0.8 µM, partner dose 2 µM)",93.9%
5,"C#Cc1cccc(Nc2ncnc3cc(OCCOC)c(OCCOC)cc23)c1 [erlotinib] + Oc1nc(-c2ccc(C(F)(F)F)cc2)nc2c1CSCC2 [XAV939] (first compound 0.8 µM, partner dose 2 µM)",75.8%
6,"COCC[n+]1c2c(n(Cc3cnccn3)c1C)C(=O)c1ccccc1C2=O + CCc1ccc(CCOc2ccc(CC3SC(=O)NC3=O)cc2)nc1 [pioglitazone] (first compound 0.0004 µM, partner dose 2 µM)",91.3%
7,"Cn1c(Nc2ccc(C(F)(F)F)cc2)nc2cc(Oc3ccnc(-c4ncc(C(F)(F)F)[nH]4)c3)ccc21 + N#Cc1c(O)c2c(-c3ccc(-c4ccccc4O)cc3)csc2[nH]c1=O [A769662] (first compound 0.08 µM, partner dose 2 µM)",38.4%
8,"O=C(CCCCCCC(=O)Nc1ccccc1)NO [vorinostat] + COc1ccc(-c2ccc3c(N4CCOCC4)nc(N4C[C@@H](C)O[C@@H](C)C4)nc3n2)cc1CO [KU0063794] (first compound 0.08 µM, partner dose 0.02 µM)",82.4%
9,"C#Cc1cccc(Nc2ncnc3cc(OCCOC)c(OCCOC)cc23)c1 [erlotinib] + N#Cc1c(O)c2c(-c3ccc(-c4ccccc4O)cc3)csc2[nH]c1=O [A769662] (first compound 0.8 µM, partner dose 2 µM)",80.9%
10,"COCC[n+]1c2c(n(Cc3cnccn3)c1C)C(=O)c1ccccc1C2=O + COC(=O)c1sccc1S(=O)(=O)Nc1ccc(Nc2ccccc2)cc1OC [GSK0660] (first compound 0.0004 µM, partner dose 1 µM)",96%
11,"COCC[n+]1c2c(n(Cc3cnccn3)c1C)C(=O)c1ccccc1C2=O + Cn1cc(/C=C2\C(=O)Nc3cccnc32)c2ccccc21 [GW441756] (first compound 0.0004 µM, partner dose 0.4 µM)",88.6%
12,"Cn1c(Nc2ccc(C(F)(F)F)cc2)nc2cc(Oc3ccnc(-c4ncc(C(F)(F)F)[nH]4)c3)ccc21 + CCc1ccc(CCOc2ccc(CC3SC(=O)NC3=O)cc2)nc1 [pioglitazone] (first compound 0.08 µM, partner dose 2 µM)",51.3%
13,"COCC[n+]1c2c(n(Cc3cnccn3)c1C)C(=O)c1ccccc1C2=O + CC(C)CCN1c2nc(Nc3cc(F)c(O)c(F)c3)ncc2N(C)C(=O)C1C [BID1870] (first compound 0.0004 µM, partner dose 0.2 µM)",97.4%
14,"O=C(CCCCCCC(=O)Nc1ccccc1)NO [vorinostat] + CC(C)CCN1c2nc(Nc3cc(F)c(O)c(F)c3)ncc2N(C)C(=O)C1C [BID1870] (first compound 0.08 µM, partner dose 0.2 µM)",78.8%
15,"C#Cc1cccc(Nc2ncnc3cc(OCCOC)c(OCCOC)cc23)c1 [erlotinib] + O=C(O)C(=O)Nc1sc2c(c1C(=O)O)CCNC2 [TCS401] (first compound 0.8 µM, partner dose 1.66667 µM)",81.5%
16,"C#Cc1cccc(Nc2ncnc3cc(OCCOC)c(OCCOC)cc23)c1 [erlotinib] + COc1ccc2c(c1)CCC1C2CCC2(C)C(NCCCCCCN3C(=O)C=CC3=O)CCC12 [U73122] (first compound 0.8 µM, partner dose 0.4 µM)",83.5%
